PMC9911399, “Two distinct binding modes provide the RNA-binding protein RbFox with extraordinary sequence specificity”
Positions count from the first letter of the chain named. The list shows a part of the results.

T1: RBFOX1 RRM RbFoxmut (Fox-RRM*) (Homo sapiens, UniProt Q9NWB1 109-208, R118D;E147R;N151S;E152T)
T1 sequence: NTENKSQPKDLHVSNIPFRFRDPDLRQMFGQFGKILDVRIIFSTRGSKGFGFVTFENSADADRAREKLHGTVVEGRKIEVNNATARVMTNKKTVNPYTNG

B1: ACACUUA (DNA:RNA)
RNA: GGGAGACCGGAAUUCAGAUUGUCCACACUUAUUAAAUCCCGUCGUAGCCACCA
DNA 1: CAATCTGAATTCCGGTCTCCC
DNA 2: TGGTGGCTACGACGGGATT
B2: CUGUGGA (DNA:RNA)
RNA: B1 RNA with A25C, C26U, A27G, C28U, U29G, U30G
DNA 1: CAATCTGAATTCCGGTCTCCC
DNA 2: TGGTGGCTACGACGGGATT
B3: UUUAUGA (DNA:RNA)
RNA: B1 RNA with A25U, C26U, A27U, C28A, U30G
DNA 1: CAATCTGAATTCCGGTCTCCC
DNA 2: TGGTGGCTACGACGGGATT
B4: AUCUAGC (DNA:RNA)
RNA: B1 RNA with C26U, A27C, C28U, U29A, U30G, A31C
DNA 1: CAATCTGAATTCCGGTCTCCC
DNA 2: TGGTGGCTACGACGGGATT
B5: AAGAAGC (DNA:RNA)
RNA: B1 RNA with C26A, A27G, C28A, U29A, U30G, A31C
DNA 1: CAATCTGAATTCCGGTCTCCC
DNA 2: TGGTGGCTACGACGGGATT
B6: ACUAAAA (DNA:RNA)
RNA: B1 RNA with A27U, C28A, U29A, U30A
DNA 1: CAATCTGAATTCCGGTCTCCC
DNA 2: TGGTGGCTACGACGGGATT
B7: GCGGAGC (DNA:RNA)
RNA: B1 RNA with A25G, A27G, C28G, U29A, U30G, A31C
DNA 1: CAATCTGAATTCCGGTCTCCC
DNA 2: TGGTGGCTACGACGGGATT
B8: AUCGGUA (DNA:RNA)
RNA: B1 RNA with C26U, A27C, C28G, U29G
DNA 1: CAATCTGAATTCCGGTCTCCC
DNA 2: TGGTGGCTACGACGGGATT
B9: UCAUUAC (DNA:RNA)
RNA: B1 RNA with A25U, C28U, U30A, A31C
DNA 1: CAATCTGAATTCCGGTCTCCC
DNA 2: TGGTGGCTACGACGGGATT
B10: CACCGAC (DNA:RNA)
RNA: B1 RNA with A25C, C26A, A27C, U29G, U30A, A31C
DNA 1: CAATCTGAATTCCGGTCTCCC
DNA 2: TGGTGGCTACGACGGGATT
B11: UAGGACA (DNA:RNA)
RNA: B1 RNA with A25U, C26A, A27G, C28G, U29A, U30C
DNA 1: CAATCTGAATTCCGGTCTCCC
DNA 2: TGGTGGCTACGACGGGATT
B12: UAUAUAG (DNA:RNA)
RNA: B1 RNA with A25U, C26A, A27U, C28A, U30A, A31G
DNA 1: CAATCTGAATTCCGGTCTCCC
DNA 2: TGGTGGCTACGACGGGATT
B13: AGUAGUG (DNA:RNA)
RNA: B1 RNA with C26G, A27U, C28A, U29G, A31G
DNA 1: CAATCTGAATTCCGGTCTCCC
DNA 2: TGGTGGCTACGACGGGATT
B14: GAAUUGG (DNA:RNA)
RNA: B1 RNA with A25G, C26A, C28U, U30G, A31G
DNA 1: CAATCTGAATTCCGGTCTCCC
DNA 2: TGGTGGCTACGACGGGATT
B15: CUUGAAG (DNA:RNA)
RNA: GGGAGACCGGAAUUCAGAUUGUCCCUUGAAGUUAAAUCCCGUCGUAGCCACCA
DNA 1: CAATCTGAATTCCGGTCTCCC
DNA 2: TGGTGGCTACGACGGGATT
B16: UUUGAUC (DNA:RNA)
RNA: B15 RNA with C25U, A30U, G31C
DNA 1: CAATCTGAATTCCGGTCTCCC
DNA 2: TGGTGGCTACGACGGGATT
B17: CUAUAGA (DNA:RNA)
RNA: B15 RNA with U27A, G28U, A30G, G31A
DNA 1: CAATCTGAATTCCGGTCTCCC
DNA 2: TGGTGGCTACGACGGGATT
B18: CAACGCA (DNA:RNA)
RNA: B1 RNA with A25C, C26A, U29G, U30C
DNA 1: CAATCTGAATTCCGGTCTCCC
DNA 2: TGGTGGCTACGACGGGATT
B19: AAGACGU (DNA:RNA)
RNA: B1 RNA with C26A, A27G, C28A, U29C, U30G, A31U
DNA 1: CAATCTGAATTCCGGTCTCCC
DNA 2: TGGTGGCTACGACGGGATT
B20: UUCAACA (DNA:RNA)
RNA: B15 RNA with C25U, U27C, G28A, A30C, G31A
DNA 1: CAATCTGAATTCCGGTCTCCC
DNA 2: TGGTGGCTACGACGGGATT

What follows are binders tested against T1, RBFOX1 RRM RbFoxmut (Fox-RRM*) (assay: EMSA; HiTS-Eq, 1 nM pool, 10 min; buffer printed only for the single-RNA assays: 10 mM Tris pH 7.5, 150 mM NaCl, 3.4 mM EDTA, 0.001% NP-40, 30 C). Conditions: tags: His6 N-terminal (pET28a); label: 5' 32P.
Method in brief: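 These values rest on relative association constants, computed from read-count changes of each RNA species versus the control reaction and normalised to the cognate motif. Reads came from free RNA recovered by 8% native PAGE after purified RbFox RRM (wild type or mutant) at increasing concentrations was equilibrated for 10 min in 50 µL with 1 nM of a 5′-radiolabelled pool with 7 randomized nucleotides and DNA-annealed flanks.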

Binder | binding signal
B1 | 0.129 KA relative to UGCAUGU
B2 | 0.0904 KA relative to UGCAUGU
B3 | 0.104 KA relative to UGCAUGU
B4 | 0.146 KA relative to UGCAUGU
B5 | 0.0834 KA relative to UGCAUGU
B6 | 0.139 KA relative to UGCAUGU
B7 | 0.094 KA relative to UGCAUGU
B8 | 0.157 KA relative to UGCAUGU
B9 | 0.104 KA relative to UGCAUGU
B10 | 0.0833 KA relative to UGCAUGU
B11 | 0.0582 KA relative to UGCAUGU
B12 | 0.0914 KA relative to UGCAUGU
B13 | 0.2 KA relative to UGCAUGU
B14 | 0.087 KA relative to UGCAUGU
B15 | 0.093 KA relative to UGCAUGU
B16 | 0.0552 KA relative to UGCAUGU
B17 | 0.0985 KA relative to UGCAUGU
B18 | 0.161 KA relative to UGCAUGU
B19 | 0.0655 KA relative to UGCAUGU
B20 | 0.0825 KA relative to UGCAUGU
